The supplement of paper PMC4967469
The IC50 comes from the fitted curve, where viability falls to half of the control; fits outside the tested doses are given as limits. AUC sums up the same curve from the lowest dose to the 256-fold higher top dose; the more sensitive the line, the further below 1. A top dose marked as inferred was derived from the fitted curves, not read from the paper. For some assays here: An entry number marks a drug with two screens in the source, which often give different values.

Key:
Assay in all cases: Viability of human cancer cell lines after 72 h of drug (GDSC screen)
Wee1 inhibitor 681640 = compound: O=C1NC(=O)c2c1c(-c1ccccc1Cl)cc1[nH]c3ccc(O)cc3c21 [Wee1 inhibitor 681640]; conditions: top dose 2 µM; top dose inferred
Description: (§1)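 Human cancer cell lines in 384-well plates, medium with 10% serum, drug for 72 h over a 256-fold dose range (nine 2-fold or five 4-fold steps up to the top dose). Adherent lines were fixed and stained with the nucleic acid dye Syto60, suspension lines read with resazurin; signal relative to control wells, capped at 0 and 100%. One two-parameter sigmoid per drug and line, fitted in a mixed model over all curves with the slope shared within a line.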

CGP-082996 (CINK4) = compound: CCNc1cc(NC2CCC(O)CC2)nc(Nc2ccc3c(ccn3Cc3ccccc3)c2)n1 [CGP-082996 (CINK4)]; conditions: top dose 5.12 µM; top dose inferred
Description: as §1

A-770041 = compound: COc1cc(-c2nn([C@H]3CC[C@H](N4CCN(C(C)=O)CC4)CC3)c3ncnc(N)c23)ccc1NC(=O)c1cc2ccccc2n1C [A-770041]; conditions: top dose 5.12 µM; top dose inferred
Description: as §1

VX-702 = compound: NC(=O)c1ccc(N(C(N)=O)c2c(F)cccc2F)nc1-c1ccc(F)cc1F [VX-702]; conditions: top dose 2 µM; top dose inferred
Description: as §1

BMS-536924 = compound: Cc1cc(N2CCOCC2)cc2[nH]c(-c3c(NC[C@@H](O)c4cccc(Cl)c4)cc[nH]c3=O)nc12 [BMS-536924]
Description: as §1

SB-525334 = compound: Cc1cccc(-c2[nH]c(C(C)(C)C)nc2-c2ccc3nccnc3c2)n1 [SB-525334]; conditions: top dose 20 µM; top dose inferred
Description: as §1

Shikonin = compound: CC(C)=CC[C@@H](O)C1=CC(=O)c2c(O)ccc(O)c2C1=O [Shikonin]; conditions: top dose 16 µM; top dose inferred
Description: as §1

XMD8-85 = compound: COc1cc(N2CCN(C)CC2)ccc1Nc1ncc2c(n1)N(C)c1ccccc1C(=O)N2C [XMD8-85]; conditions: top dose 8 µM; top dose inferred
Description: as §1

Olaparib = compound: O=C(c1cc(Cc2n[nH]c(=O)c3ccccc23)ccc1F)N1CCN(C(=O)C2CC2)CC1 [Olaparib]
Description: as §1

HG-5-113-01 = compound: CNC(=O)c1ccc(Nc2cc(Nc3ccccc3S(=O)(=O)C(C)C)c3cc[nH]c3n2)nc1 [HG-5-113-01]; conditions: top dose 10 µM; top dose inferred
Description: as §1

BIRB 0796 = compound: Cc1ccc(-n2nc(C(C)(C)C)cc2NC(=O)Nc2ccc(OCCN3CCOCC3)c3ccccc23)cc1 [BIRB 0796]; conditions: top dose 10 µM; top dose inferred
Description: as §1

[1] = top dose 4 µM, screen: GDSC drug entry 1091, top dose inferred
[2] = top dose 5.12 µM, screen: GDSC drug entry 62
[3] = top dose 5 µM, screen: GDSC drug entry 1017, top dose inferred
[4] = top dose 10 µM, screen: GDSC drug entry 1495

Cell Line	AUC (Wee1 inhibitor 681640)	IC50 (Wee1 inhibitor 681640) [µM]	AUC (CGP-082996 (CINK4))	IC50 (CGP-082996 (CINK4)) [µM]	AUC (A-770041)	IC50 (A-770041) [µM]	AUC (VX-702)	IC50 (VX-702) [µM]	AUC (BMS-536924; [1])	IC50 (BMS-536924; [1]) [µM]	AUC (BMS-536924; [2])	IC50 (BMS-536924; [2]) [µM]	AUC (SB-525334)	IC50 (SB-525334) [µM]	AUC (Shikonin)	IC50 (Shikonin) [µM]	AUC (XMD8-85)	IC50 (XMD8-85) [µM]	AUC (Olaparib; [3])	IC50 (Olaparib; [3]) [µM]	AUC (Olaparib; [4])	IC50 (Olaparib; [4]) [µM]	AUC (HG-5-113-01)	IC50 (HG-5-113-01) [µM]	AUC (BIRB 0796)	IC50 (BIRB 0796) [µM]
ES-2 (ovary, adherent)	0.922	> 2	0.988	> 5.12	0.991	> 5.12	0.99	> 2	0.99	> 4	0.98	> 5.12	0.925	> 20	0.597	1.78	0.986	> 8	0.988	> 5	0.976	> 10	0.955	> 10	0.959	> 10
ETK-1 (biliary tract, adherent)	0.946	> 2	0.543	0.426	0.48	0.279	0.957	> 2	0.878	> 4	0.372	0.135	0.841	16.7	0.569	1.58	0.778	3.69	0.91	> 5	0.89	> 10	0.777	4.57	0.982	> 10
EVSA-T (breast, adherent)	0.981	> 2	0.916	> 5.12	0.917	> 5.12	0.991	> 2	0.934	> 4	0.96	> 5.12	0.819	9.38	0.352	0.415	0.937	> 8	0.991	> 5	0.946	> 10	0.825	4.91	0.926	> 10
EW-1 (Ewing sarcoma, semi-adherent)	0.901	> 2	0.911	> 5.12	0.983	> 5.12	0.989	> 2	0.914	> 4	0.423	0.2	0.857	14.3	0.508	1.05	0.752	2.46	0.921	> 5	0.79	4.05	0.753	3.11	0.982	> 10
EW-11 (Ewing sarcoma, adherent)	0.952	> 2	0.956	> 5.12	0.967	> 5.12	0.935	> 2	0.592	0.482	0.967	> 5.12	0.743	7.78	0.426	0.592	0.828	7.04	0.846	> 5	0.876	> 10	0.624	1.52	0.958	> 10
EW-16 (Ewing sarcoma, adherent)	0.876	> 2	0.885	> 5.12	0.799	2.58	0.921	> 2	0.767	1.56	0.419	0.19	0.59	2.23	0.314	0.294	0.882	> 8	0.895	> 5	0.804	5.28	0.67	1.9	0.931	> 10
EW-24 (Ewing sarcoma, semi-adherent)	0.986	> 2	0.976	> 5.12	0.97	> 5.12	0.99	> 2	0.898	3.96	0.927	> 5.12	0.993	> 20	0.797	6.5	0.991	> 8	0.982	> 5	0.988	> 10	0.819	4.81	0.989	> 10
EoL-1-cell (haematopoietic neoplasm, suspension)	0.961	> 2	0.887	4.56	0.841	2.98	0.924	> 2	0.715	0.928	0.725	1.27	0.948	> 20	0.315	0.325	0.906	> 8	0.922	> 5	0.956	> 10	0.49	0.59	0.616	1.25
Farage (B-cell lymphoma, suspension)	0.977	> 2	0.988	> 5.12	0.419	0.2	0.949	> 2	0.992	> 4	0.855	2.97	0.955	> 20	0.187	0.148	0.982	> 8	0.988	> 5	0.99	> 10	0.992	> 10	0.973	> 10
GB-1 (glioma, adherent)	0.864	> 2	0.851	5.03	0.544	0.432	0.98	> 2	0.882	> 4	0.577	0.539	0.829	15.6	0.439	0.66	0.923	> 8	0.902	> 5	0.918	> 10	0.768	4.42	0.924	> 10
